Sequences with one replicate were seen in a single cluster, so their values are uncertain.
System: ATP
Test: switch fluorescence ratio, 500 uM ATP over buffer (Cy3 cluster intensity, sum of 5 cycles each) (fold (ratio)); higher = stronger signal-on switching upon ATP binding; sequences stand for … in TCGTCGGCAGCGTCAGATGTGTATAAGAGACAGTTTTTTTTTTTTTTTTTTTTTTTTT…TC
Conditions: aptamer strand: ATP DNA aptamer (quencher-CACCTGGGGGAGTATTGCGGAGGAAGG + anchor), 100 nM annealed; ATP concentration: 500 uM; one replicate
Procedure, shortened: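 Between each of five buffer/ATP cycles, the flow-cell was stripped with NaOH and re-annealed. Each cycle imaged Cy3-labelled switching-strand clusters, annealed to 100 nM quencher-labelled ATP aptamer on a modified Illumina MiSeq flow-cell, first in selection buffer and then after 15 min with 500 uM ATP at 22 °C. The fluorescence ratio is summed target-cycle over summed buffer-cycle Cy3 intensity per cluster, averaged per switch-domain sequence, with clusters outside 100-1000 RFU excluded.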
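Note: ATP exposure 15 min at 22 °C before imaging.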

CGGAGCGTTT
switch fluorescence ratio: 1.2

CAATACGCCA
switch fluorescence ratio: 1.85

AGTATCGACT
switch fluorescence ratio: 0.977

CGAACGGCTT
switch fluorescence ratio: 1

CCAGTAACCC
switch fluorescence ratio: 1.07

TCCATGCGCC
switch fluorescence ratio: 1.31

TTCGTAATTT
switch fluorescence ratio: 1.08

GGCGGACTCA
switch fluorescence ratio: 0.974

CCAGACCTGC
switch fluorescence ratio: 0.998

GGTTGCCTTC
switch fluorescence ratio: 0.952

CACCGCTTTT
switch fluorescence ratio: 2.73

GAGCGAAGCT
switch fluorescence ratio: 0.986

CGTTCCCACC
switch fluorescence ratio: 0.982

GGAGGCAAAA
switch fluorescence ratio: 2.53

ACAGAGGATA
switch fluorescence ratio: 1.03

CTTCTTTAAC
switch fluorescence ratio: 1.03

GTGTCGGGTG
switch fluorescence ratio: 1.02

ACATGAGCAC
switch fluorescence ratio: 1.1

TGGCGCTCAC
switch fluorescence ratio: 1.13

AAATTGCCGT
switch fluorescence ratio: 0.976

CGAAACTACA
switch fluorescence ratio: 1.06

AATGCGCATA
switch fluorescence ratio: 1.03

GAGCAAGGGG
switch fluorescence ratio: 1.01

GGCGTTAACT
switch fluorescence ratio: 1.03

ATGGCTGAAG
switch fluorescence ratio: 1.01

TTAATTGGAA
switch fluorescence ratio: 0.957

AAGACGTGCC
switch fluorescence ratio: 1.02

CTTCGATGAT
switch fluorescence ratio: 0.982

TATGTTATCT
switch fluorescence ratio: 1

TGGCACAAAA
switch fluorescence ratio: 1.04

AATGGACGCT
switch fluorescence ratio: 1.03

GGCGATAGTT
switch fluorescence ratio: 0.972

ATTAGCTCGA
switch fluorescence ratio: 1.02

GACAGATAGG
switch fluorescence ratio: 0.962

GCCTGGCAAG
switch fluorescence ratio: 0.981

GTTAAGGA
switch fluorescence ratio: 1

GATTAGATAT
switch fluorescence ratio: 1.01

GGAAAATTAG
switch fluorescence ratio: 0.987

CTGTGCTGTT
switch fluorescence ratio: 1

CGATCGGTGC
switch fluorescence ratio: 1.17

GTCGAGAGTA
switch fluorescence ratio: 0.973

TAACATGTGC
switch fluorescence ratio: 1.06

GGGCCACTTA
switch fluorescence ratio: 1.12

CTAGCCTGGC
switch fluorescence ratio: 1.22

TTTACCTCCA
switch fluorescence ratio: 1.1

CTGGACATTA
switch fluorescence ratio: 1.03

GGGTAATCG
switch fluorescence ratio: 1.02

CGGGCTACCC
switch fluorescence ratio: 0.954

CTATTACGA
switch fluorescence ratio: 1.04

GATGAAATAG
switch fluorescence ratio: 1.08

AACTCTCGTT
switch fluorescence ratio: 0.976

TACAGGAGT
switch fluorescence ratio: 1.07

GAGACTTTGT
switch fluorescence ratio: 1.01

GCTGCAGAAC
switch fluorescence ratio: 2.13

CATGTCAGGG
switch fluorescence ratio: 0.987

TTCAATTTTG
switch fluorescence ratio: 1.02

CCGACAGTTG
switch fluorescence ratio: 1.13

AACGGTTGTC
switch fluorescence ratio: 1.07

GCTTTACGG
switch fluorescence ratio: 1.01

TGTTCTCCTC
switch fluorescence ratio: 1.05

CAGAGCCTGT
switch fluorescence ratio: 1.04

AATATCTGAG
switch fluorescence ratio: 1.01

TTGTTCGCG
switch fluorescence ratio: 0.997

GTGTATGCGA
switch fluorescence ratio: 1.01

GAGAGAAGTA
switch fluorescence ratio: 0.979

AAGCTGCGC
switch fluorescence ratio: 1.12

CCTGCAGAGT
switch fluorescence ratio: 1.11

AAGGCTGAG
switch fluorescence ratio: 1.02

CCGTTAGCT
switch fluorescence ratio: 1.65

TTGGTTGGGC
switch fluorescence ratio: 1.02

CCAGGATCAG
switch fluorescence ratio: 1.03

AGTTAGGGCC
switch fluorescence ratio: 1.05

GTCTTCATTT
switch fluorescence ratio: 1.02

CATATGCATG
switch fluorescence ratio: 1.06

ATTTAAGGC
switch fluorescence ratio: 1.04

AGCCTACAGG
switch fluorescence ratio: 1.05

GTGATCGCCT
switch fluorescence ratio: 0.969

GATCATCCGC
switch fluorescence ratio: 3.09

GGCGCTGTAG
switch fluorescence ratio: 0.977

GATGTTGG
switch fluorescence ratio: 0.965

CCCGCATTTT
switch fluorescence ratio: 3.04

TGTCTAATGT
switch fluorescence ratio: 0.993

GAAGAAGCAA
switch fluorescence ratio: 1.54

TCTCTCTGTG
switch fluorescence ratio: 1.01

GCAACGACTG
switch fluorescence ratio: 1.05

TTATTCAGAG
switch fluorescence ratio: 1.05

AGATGCAAAA
switch fluorescence ratio: 1.04

GGGATTGTCC
switch fluorescence ratio: 0.996

CTCGAATATC
switch fluorescence ratio: 1.5

GTGCTTTCAT
switch fluorescence ratio: 1.03

AGGGTGAGCA
switch fluorescence ratio: 1.01

GGTTCCTAGT
switch fluorescence ratio: 1.02

GGGTGCAAT
switch fluorescence ratio: 1.29

GAGCTTATCC
switch fluorescence ratio: 0.922

GCTACGCCAT
switch fluorescence ratio: 1.79

AAGATTTTCA
switch fluorescence ratio: 0.981

CCCTGGCCTT
switch fluorescence ratio: 0.97

AACCTCTGAT
switch fluorescence ratio: 1.06

AACTTACCG
switch fluorescence ratio: 1.11

CTGGCTGTGG
switch fluorescence ratio: 0.984

GGTTCAGGCA
switch fluorescence ratio: 0.995

GTGCTCCCAG
switch fluorescence ratio: 1.06

TACGCTTAGT
switch fluorescence ratio: 1.03

CCGTGGCTG
switch fluorescence ratio: 1.02

GGTGTTCTTT
switch fluorescence ratio: 1.03

TCCCGCAGGG
switch fluorescence ratio: 1.01

GTGATCGGCA
switch fluorescence ratio: 0.978

CATTGGGCCA
switch fluorescence ratio: 1

TCAAGGTCT
switch fluorescence ratio: 1.04

TACCGATCGA
switch fluorescence ratio: 1.08

CCGGATGGTA
switch fluorescence ratio: 1.03

TGATAGAGAG
switch fluorescence ratio: 1.04

CTTGGAGTAT
switch fluorescence ratio: 1

CGAAACAGGT
switch fluorescence ratio: 0.957

CATGAAGAGG
switch fluorescence ratio: 0.966

CGGTCGATGT
switch fluorescence ratio: 0.995

TGATCGACCA
switch fluorescence ratio: 0.987

ACTCTATTTT
switch fluorescence ratio: 1.03

CTCTAGCTTA
switch fluorescence ratio: 1.27

AGTGAAGGGT
switch fluorescence ratio: 0.998

AGAACAGGA
switch fluorescence ratio: 1.06

AACCCTAGGG
switch fluorescence ratio: 1.04

GTTACAGTC
switch fluorescence ratio: 1.01

AAAATAGGCA
switch fluorescence ratio: 1.04

GCGCCCTGAC
switch fluorescence ratio: 1.56

ATGCTGGGTG
switch fluorescence ratio: 1.14

TACGTGTGAC
switch fluorescence ratio: 1

TGGGCTAGAG
switch fluorescence ratio: 1.03

TGACGCTTA
switch fluorescence ratio: 1.17

GGGATTGATA
switch fluorescence ratio: 1.05

CCTCGGTTAA
switch fluorescence ratio: 2.92

AGATGTTTGC
switch fluorescence ratio: 1.01

AATGTGTAGC
switch fluorescence ratio: 1.01

ACAATGATCT
switch fluorescence ratio: 1

TTGAGTGAC
switch fluorescence ratio: 0.992

CGACTAATGG
switch fluorescence ratio: 1

GCGGATTAAA
switch fluorescence ratio: 0.987

TATGTTCGGG
switch fluorescence ratio: 0.939

CGCCCCCAAG
switch fluorescence ratio: 2.74

GTGGCCGGTG
switch fluorescence ratio: 1.01

GTTCCCTATC
switch fluorescence ratio: 1.02

TCCTGGGGAA
switch fluorescence ratio: 1.15

TTTATGAC
switch fluorescence ratio: 1.01

ACGTGTGG
switch fluorescence ratio: 1.02

CTCTAAGGG
switch fluorescence ratio: 1.08

GATTACTGAT
switch fluorescence ratio: 1.01

TTGGCAGAAA
switch fluorescence ratio: 0.971

TCGAAGAGGT
switch fluorescence ratio: 0.952

CTTTTATAAA
switch fluorescence ratio: 0.991

AGCTCTCCG
switch fluorescence ratio: 1.29

GCAGGACCGA
switch fluorescence ratio: 0.986

ACGCTACTAA
switch fluorescence ratio: 1.44

ACAGCCGCGT
switch fluorescence ratio: 1.25

CAGTCTCCTG
switch fluorescence ratio: 1.03

TCACATGACA
switch fluorescence ratio: 1.1

GTAGCTGGTT
switch fluorescence ratio: 0.981

TCGTTGCCCC
switch fluorescence ratio: 1.15

ACATCGCCGT
switch fluorescence ratio: 1.01
